Out of some 48,000 compounds screened, about 550 (1.1%) were called active. Another 4% or so got no clear call; they are omitted. Cut-off read from the data, not from the text of the source: active = potency below about 15 µM; inconclusive = mostly about 16 µM to 33 µM; inactive = weaker than that. The list shows a part of the results.
Potency is the fitted concentration of half-maximal effect.

In this assay the target is Lysosomal acid glucosylceramidase (Homo sapiens) (UniProt P04062). As to the kind of experiment: Glucocerebrosidase.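 Note: the screen sought inhibitors.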 As to conditions: purified enzyme, resorufin glucoside fluorescence (screen aimed at inhibitors), 20 min. The essentials: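 Compounds titrated against 0.2 nM normal enzyme, 30 uM resorufin beta-D-glucopyranoside substrate, citrate/phosphate buffer with taurocholate and tween-20, pH 5.9. Reaction ran 20 min at room temperature; fluorescence (Ex 548/Em 600) gave AC50.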
UniProt P04062, sequence (P04062 whole entry, looked up): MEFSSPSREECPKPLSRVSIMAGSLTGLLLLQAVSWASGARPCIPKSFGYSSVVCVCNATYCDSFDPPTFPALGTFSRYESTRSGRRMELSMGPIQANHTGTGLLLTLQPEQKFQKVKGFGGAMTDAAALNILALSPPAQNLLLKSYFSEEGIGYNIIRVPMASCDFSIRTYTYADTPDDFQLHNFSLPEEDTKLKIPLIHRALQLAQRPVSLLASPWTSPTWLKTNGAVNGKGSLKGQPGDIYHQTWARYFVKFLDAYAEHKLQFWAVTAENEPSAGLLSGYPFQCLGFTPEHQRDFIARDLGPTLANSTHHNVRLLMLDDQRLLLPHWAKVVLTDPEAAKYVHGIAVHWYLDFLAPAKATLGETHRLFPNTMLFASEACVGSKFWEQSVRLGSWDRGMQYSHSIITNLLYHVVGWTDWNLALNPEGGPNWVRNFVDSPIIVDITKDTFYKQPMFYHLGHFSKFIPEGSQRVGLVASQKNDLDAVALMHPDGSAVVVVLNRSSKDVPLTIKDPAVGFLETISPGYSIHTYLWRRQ
Turning to `Cc1ccc(N(C(=O)Cn2nnc3ccccc32)C(C(=O)NCc2ccco2)c2cccnc2)cc1` (centres undefined), the Potency is inactive: > 76.9 µM.

For the compound `CN1CCN(Cc2c(C#N)c3ccccc3n2C)CC1`, the Potency was inactive: > 76.9 µM.

Consider `CC(C)C(c1nnnn1Cc1ccc(F)cc1)N1CCN(C2CCCCC2)CC1` (centres undefined), for which the Potency was inactive: > 76.9 µM.

In the case of `COc1ccc(C(=O)n2nc(-c3ccc(Cl)cc3)nc2N)cc1OC`, the Potency was inactive: > 76.9 µM.

For the compound `Cc1nnc(SCC(=O)N2CCN(S(=O)(=O)c3ccc(Cl)cc3)CC2)n(N)c1=O`, the Potency was inactive: > 76.9 µM.

With `CC1CCCN(c2ccc(C(=O)NCC3CCCO3)cn2)C1` (centres undefined), the Potency was inactive: > 76.9 µM.

Turning to `O=C(c1ccco1)N1CCN(S(=O)(=O)c2ccc(C3CCCCC3)cc2)CC1`, the Potency was inactive: > 76.9 µM.

In the case of `Cc1cc(NC(=O)COC(=O)c2ccc(F)c(S(=O)(=O)N3CCOCC3)c2)no1`, the Potency is inactive: > 76.9 µM.

As for `COc1cccc(C(=O)OCCN2C(=O)c3ccccc3C2=O)c1OC`, the Potency was inactive: > 76.9 µM.

Turning to `CCNC(=O)NC(=O)COc1ccccc1C#N`, the Potency was inactive: > 76.9 µM.

Turning to `COc1cc(C2C3CN(C)CC=C3C(C#N)=C(N)C2(C#N)C#N)ccc1OC(C)C` (centres undefined), the Potency was inactive: > 76.9 µM.

In the case of `O=c1c2ccccc2nnn1CSc1nnc(COc2ccc(Cl)cc2)n1Cc1ccco1`, the Potency is inactive: > 76.9 µM.

Regarding `O=C(CN1CCN(c2ncccn2)CC1)Nc1ccccc1-n1cccc1`, the Potency is inactive: > 76.9 µM.

Take `O=C(O)C1CCCCC1C(=O)N1CC=C(c2ccccc2)CC1` (centres undefined): the Potency is inactive: > 76.9 µM.

In the case of `COc1ccc(C2CC(c3cccc(OC)c3OC)n3nnnc3N2)cc1` (centres undefined), the Potency was inactive: > 76.9 µM.

`COc1ccc(C(O)C(CN2CCOCC2)c2ccccc2)cc1F` (centres undefined): the Potency was inactive: > 76.9 µM.

On to `Cc1c(C(=O)NCCC2=CCCCC2)oc2ccc(S(=O)(=O)N3CCC4(CC3)OCCO4)cc12`, for which the Potency was inactive: > 76.9 µM.

For the compound `CCOC(=O)c1[nH]c(C)c(C(=O)OCC(=O)N2CCCCC2C)c1C` (centres undefined), the Potency is inactive: > 76.9 µM.

`O=C(Nc1cccnc1)c1cc(-c2ccco2)on1`: the Potency was inactive: > 76.9 µM.

Turning to `O=S(=O)(NC1CCN(Cc2ccccc2)CC1)c1cccc2cccnc12`, the Potency was inactive: > 76.9 µM.

Take `Cn1c(SCC(=O)NCc2ccc3c(c2)OCO3)nnc1-c1cccs1`: the Potency was inactive: > 76.9 µM.

Regarding `Cc1cc(=O)oc2c1c(C)nn2-c1nn[nH]n1`, the Potency was inactive: > 76.9 µM.

Turning to `CCOc1ccc2c(c1)c1nnc(SCC(=O)N3CCCCC3C)nc1n2C` (centres undefined), the Potency is inactive: > 76.9 µM.

As for `CCCCc1cc2c(c(NC(=O)CC)n1)c(=O)oc1ccccc12`, the Potency is inactive: > 15.4 µM.

For the compound `COc1ccc(N2CCN(CCCNC(=O)CCCn3c(=O)[nH]c4ccsc4c3=O)CC2)cc1`, the Potency was inactive: > 76.9 µM.

In the case of `Cc1nc(-c2cccc(S(=O)(=O)N3CC(C)OC(C)C3)c2)cs1` (centres undefined), the Potency is inactive: > 76.9 µM.

For the compound `Cn1c(SCc2cnc(-c3ccccc3)s2)nnc1C1COc2ccccc2O1` (centres undefined), the Potency was inactive: > 76.9 µM.

As for `Cn1c(=O)[nH]c(=O)c2c1nc(NCCc1ccccc1)n2CC(O)COc1ccccc1` (centres undefined), the Potency was inactive: > 76.9 µM.

Consider `O=C(O)CCCC(=O)NCCc1ccncc1`, for which the Potency is inactive: > 76.9 µM.

With `N=c1nc(N)nc2n1NC(c1ccc(F)cc1)=CS2`, the Potency was inactive: > 76.9 µM.

For the compound `COc1cc(C2C3=C(Nc4ncnn42)c2ccccc2CC3)cc(OC)c1OC` (centres undefined), the Potency was inactive: > 76.9 µM.

For the compound `CN1C(=O)c2cccc(N(C)C)c2C1=O`, the Potency was inactive: > 76.9 µM.

Turning to `Cc1ccc(CCNC(=O)C2CCN(C(=O)N(C)C)CC2)cc1`, the Potency was inactive: > 76.9 µM.

Consider `COc1ccc(OC)c(NC(=O)Cn2cc(C(=O)c3ccco3)c3ccccc32)c1`, for which the Potency is inactive: > 76.9 µM.

As to `CCC(Sc1nc2cc3c(cc2c(=O)n1Cc1ccco1)OCO3)C(=O)Nc1cccc(OC)c1` (centres undefined), the Potency is inactive: > 76.9 µM.

With `CCc1nccn1S(=O)(=O)c1ccc2ccc(C)cc2c1`, the Potency is inactive: > 76.9 µM.

Regarding `C=CCSc1nc2ccccc2[nH]1`, the Potency was inactive: > 76.9 µM.

Regarding `CC(=O)c1cccc(N2C(=NC(=O)C(C)C)SC3CS(=O)(=O)CC32)c1` (centres undefined), the Potency was inactive: > 76.9 µM.

In the case of `COc1ccc(-c2noc(CN(C)S(=O)(=O)c3ccccc3)n2)cc1OC`, the Potency was inactive: > 76.9 µM.

On to `Cc1ccc2c(CSc3nnc(C4CC4)n3N)cc(=O)oc2c1`, for which the Potency is inactive: > 76.9 µM.

As for `COCCCn1c2nc3ccccc3nc2c2c(=O)n(Cc3ccccc3Cl)cnc21`, the Potency was inactive: > 76.9 µM.

Turning to `COc1ccc(OC)c(S(=O)(=O)NCCO)c1`, the Potency is inactive: > 76.9 µM.

In the case of `Cc1coc2c(C)c3oc(=O)c4c(c3cc12)CCC4`, the Potency was inactive: > 76.9 µM.

As for `COc1ccc(-c2nnc(SCC(=O)Nc3ccc(Cl)cc3)n2C)cc1`, the Potency is inactive: > 76.9 µM.

`CCc1ccc2c(c1)[C@]1(C(=O)N2)[C@@H]2C(=O)N(Cc3ccccc3)C(=O)[C@@H]2[C@@H]2CCCN21`: the Potency was inactive: > 76.9 µM.

Turning to `Cc1cccc(-c2nnc3n2N=C(c2ccccc2Br)CS3)c1`, the Potency result is “inactive”.

Turning to `O=C(NC12CC3CC(CC(C3)C1)C2)N1CCCC(CO)C1` (centres undefined), the Potency is inactive: > 76.9 µM.

As to `Cn1c(=O)c2c(nc(CN3CCC(Cc4ccccc4)CC3)n2CCN2CCOCC2)n(C)c1=O`, the Potency was inactive: > 76.9 µM.

As for `CCOC(=O)c1c(C)n(C)c2ccc(OCC(O)Cn3nc(C)cc3C)cc12` (centres undefined), the Potency was inactive: > 76.9 µM.

Regarding `CCCNC(=O)C(Cc1ccccc1)NS(=O)(=O)c1cccc2nsnc12` (centres undefined), the Potency was inactive: > 76.9 µM.

On to `CC1CC(C)CN(c2oc(-c3ccccc3Cl)nc2C#N)C1` (centres undefined), for which the Potency is inactive: > 76.9 µM.

Turning to `COCCn1c(SCC(=O)Nc2ccc3c(c2)OCCO3)nnc1-c1c[nH]c2ccccc12`, the Potency was inactive: > 76.9 µM.

For `CCOC(=O)Cc1cc(=O)c2c(=O)n(-c3ccccc3)[nH]c2[nH]1`, the Potency is inactive: > 76.9 µM.

Regarding `Cc1ccc(S(=O)(=O)N2CCOCC2)c(C)c1-n1cnnn1`, the Potency is inactive: > 76.9 µM.

Consider `Cc1ccccc1Cn1cc(NC(=O)c2cc3nc(-c4ccco4)cc(C(F)(F)F)n3n2)cn1`, for which the Potency was inactive: > 76.9 µM.

As to `CCN(CC)S(=O)(=O)c1ccc(F)c(C(=O)NCCC(C)C)c1`, the Potency was inactive: > 76.9 µM.

Regarding `CCCC(=O)N(Cc1cc2cccc(C)c2[nH]c1=O)c1ccccc1OC`, the Potency was inactive: > 76.9 µM.

Turning to `C=CCNC(=O)c1ccc(Cl)cc1Cl`, the Potency is inactive: > 76.9 µM.

`Cc1cc(NC(=O)c2cnn3c(C(F)(F)F)cc(-c4ccccc4)nc23)no1`: the Potency is inactive: > 76.9 µM.

As for `O=c1[nH]c(CN2CCc3ccccc3C2)nc2ccccc12`, the Potency is inactive: > 76.9 µM.

As to `CN(Cc1cccs1)S(=O)(=O)c1cccs1`, the Potency is inactive: > 76.9 µM.

With `C1=C(C(c2nnnn2C2CCCCC2)N2CCCCC2)COc2ccccc21` (centres undefined), the Potency is inactive: > 76.9 µM.

Turning to `COc1ccc(-n2nc(C(=O)NCC(=O)NCc3ccco3)c3ccccc3c2=O)cc1`, the Potency was inactive: > 76.9 µM.

`COc1ccc(CC(=O)N2CC(=O)N(CCc3ccccc3)C(=O)C2)cc1`: the Potency was inactive: > 76.9 µM.

Consider `Cc1ccc(N(C(=O)C2CCCO2)C2C=CS(=O)(=O)C2)cc1Cl` (centres undefined), for which the Potency is inactive: > 76.9 µM.

On to `O=C(Nc1c(F)cc(F)cc1Br)c1cc(-c2ccco2)on1`, for which the Potency was inactive: > 76.9 µM.

As for `COc1ccc(C2(O)CCN(C(=O)c3ccc4c(c3)OCO4)CC2)cc1`, the Potency was inactive: > 76.9 µM.

Regarding `CCCCc1nnc(NC(=O)C=C(C)C)s1`, the Potency was inactive: > 76.9 µM.

Take `c1nc(N2CCOCC2)c2c3c(sc2n1)CCCC3`: the Potency is inactive: > 76.9 µM.

Turning to `CCCC(=O)c1cc(-c2nc3ccccc3n2C)n(C)c1`, the Potency is inactive: > 76.9 µM.

Take `CCOC(=O)CN1C(=O)NC(C)(c2ccc(OC(F)F)cc2)C1=O` (centres undefined): the Potency is inactive: > 76.9 µM.

Regarding `COc1ccccc1CC(=O)N(CCC#N)CCC#N`, the Potency is inactive: > 76.9 µM.

With `O=C(COC(=O)C1CCN(S(=O)(=O)c2cccs2)CC1)c1ccc2c(c1)OCCO2`, the Potency is inactive: > 76.9 µM.

Turning to `Cc1cccc(N2CSC3=C(C#N)C(c4ccc(C)o4)CC(=O)N3C2)c1` (centres undefined), the Potency is active: 15 µM.

Take `COc1cccc(CNC(=O)C2CCN(S(=O)(=O)N3CCCCC3)CC2)c1`: the Potency is inactive: > 76.9 µM.

For the compound `CCOC(=O)c1oc2nc(C(C)C)c3c(c2c1N)CCC3`, the Potency is inactive: > 76.9 µM.

Turning to `O=C(NCC1CCCCC1)C1CCCN(C(=O)NC2CCCCC2)C1` (centres undefined), the Potency was inactive: > 76.9 µM.

On to `CCOc1ccc(CCNC(=O)Cc2nn[nH]n2)cc1OCC`, for which the Potency was inactive: > 76.9 µM.

Take `CCCOC(=O)c1ccc(OCC(O)CN2CCN(C(=O)c3ccccc3)CC2)cc1` (centres undefined): the Potency is inactive: > 76.9 µM.

Regarding `CCOC(=O)c1cccc(NC(=O)CSc2nnnn2C)c1`, the Potency is inactive: > 76.9 µM.

As to `COc1ccc2c(c1)c1ncn(CCN3CCCC3)c(=O)c1n2C`, the Potency result is “inactive”.

With `Cc1nnc(SCCn2c(N3CCC(Cc4ccccc4)CC3)nc3c2c(=O)[nH]c(=O)n3C)s1`, the Potency is inactive: > 76.9 µM.

On to `COc1ccc(C(=O)CN2C(=O)C(C)(C)Oc3ccc(C(=O)N4CCCCCC4)cc32)cc1`, for which the Potency was inactive: > 76.9 µM.

For the compound `CC(=O)c1cnc(Nc2nc(C)c3ccccc3n2)nc1C`, the Potency was inactive: > 76.9 µM.

For `O=C(CSc1nncs1)NC(=O)NCc1ccccc1`, the Potency is inactive: > 76.9 µM.

Consider `CCCCOC(=O)C1=C(C)Nc2ncnn2C1c1ccc(OC)c(OC)c1OC` (centres undefined), for which the Potency was inactive: > 76.9 µM.

`O=C(NC1CCCCC1)c1ccc2c(=O)n(CC3CCCO3)c(=O)[nH]c2c1` (centres undefined): the Potency was active: 6.37 µM.

Take `CCOc1ccccc1NC(=O)Cn1cnc2c(cnn2-c2ccc(C)c(C)c2)c1=O`: the Potency was inactive: > 76.9 µM.

As to `N#Cc1c(N)nc(N2CCCC2)c(C#N)c1-c1ccc(Cl)cc1`, the Potency is inactive: > 76.9 µM.

Source of the values: PubChem BioAssay AID360 (National Center for Advancing Translational Sciences (NCATS), 2006).
